# Assay results as given in US10299477B2 (priority 2015, dated 2019).
# Assays:
# Type in all cases: in vivo
# [1] = tested on: Blumeria graminis f sp. hordei; assay: Test Example D: Powdery mildew on barley; settings: for Test D control value (powdery mildew on barley): preventive, control value class; for Test D (control value class, powdery mildew on barley): in vivo
# Description: [Test Example D] Powdery Mildew on Barley
# After the sprayed dilutions were dried, conidia of Blumeria graminis f sp. hordei were inoculated to the plants by shaking off.
# Alternaia brassicicola = assay: Test Example C: Alternaria sooty spot on cabbage; settings: for Test C control value (Alternaria sooty spot on cabbage): preventive, control value class; for Test C control value / Test C (control value class): Alternaria sooty spot on cabbage; for Test C (control value class, Alternaria sooty spot on cabbage): in vivo
# Description: [Test Example C] Alternaria Sooty Spot on Cabbage
# Seeds of a test plant (cabbage variety: Shikidori) were planted followed by cultivating until the cotyledons extended.
# Puccinia recondita = assay: Test Example E: Brown rust on wheat; settings: for Test E control value (brown rust on wheat): preventive, control value class; for Test E (control value class, brown rust on wheat): in vivo
# Description: [Test Example E] Brown Rust on Wheat
# Plasmopara viticola = assay: Test Example G: Downy mildew on vine; settings: for Test G control value (downy mildew on vine): 250 ppm spray (2.5 ml/pot), preventive, control value class; for Test G control value: 250 ppm sprayed before inoculation; for Test G (control value class, downy mildew on vine): 250 ppm, sprayed 2.5 ml/pot before inoculation; for Test G (control value class): 250 ppm spray
# Description: [Test Example G] Downy Mildew on Vine
# Seeds of a test plant (grape variety: Neomuscat) were planted followed by cultivating until three to four first leaves appeared. […] After the sprayed dilutions were dried, a zoosporangia suspension (1-2×10^4 zoosporangia/ml) of Plasmopara viticola was inoculated to the plants by spraying.
# Botrytis cinerea = assay: Test Example B: Gray mold on tomato; settings: for Test B control value (gray mold on tomato): preventive, control value class; for Test B (control value class, gray mold on tomato): in vivo
# Description: [Test Example B] Gray Mold on Tomato
# Seeds of a test plant (tomato variety: Oogata Fukuju) were planted followed by cultivating until three to five first leaves (true leaves) appeared.
# [2] = Downy mildew on vine, 7-10 days after inoculation
# [3] = evaluated 7-10 days after inoculation
# [4] = powdery mildew on barley, 250 ppm spray
# [5] = brown rust on wheat, Puccinia recondita, 250 ppm spray
# [6] = downy mildew on vine, Plasmopara viticola, 7-10 days after inoculation
# [7] = gray mold on tomato, Botrytis cinerea, 250 ppm spray
compound,measurement,setting,value
Cn1c(-c2c(F)cc(F)cc2F)c(-c2cc(F)ccc2Cl)ccc1=O [Compound 339],Test D control value (powdery mildew on barley),[1]; 250 ppm spray,H (H shows more than 50% of control values)
same,Test C control value (Alternaria sooty spot on cabbage),Alternaia brassicicola; 250 ppm spray,H (H shows more than 50% of control values)
same,Test E control value (brown rust on wheat),Puccinia recondita; 250 ppm spray,H (H shows more than 50% of control values)
same,Test G control value (downy mildew on vine),Plasmopara viticola; 7-10 days after inoculation,H (H shows more than 50% of control values)
same,Test B control value (gray mold on tomato),Botrytis cinerea; 250 ppm spray,H (H shows more than 50% of control values)
Cn1c(-c2c(F)cccc2F)c(-c2cc(OCS(C)(=O)=O)ccc2Cl)ccc1=O [Compound 312],Test D control value (powdery mildew on barley),[1]; 250 ppm spray,L (L shows 50% or less of control values)
same,Test C control value (Alternaria sooty spot on cabbage),Alternaia brassicicola; 250 ppm spray,L (L shows 50% or less of control values)
same,Test E control value (brown rust on wheat),Puccinia recondita; 250 ppm spray,H (H shows more than 50% of control values)
same,Test G control value (downy mildew on vine),Plasmopara viticola; 7-10 days after inoculation,L (L shows 50% or less of control values)
same,Test B control value (gray mold on tomato),Botrytis cinerea; 250 ppm spray,H (H shows more than 50% of control values)
CCOc1cccc(-c2ccc(=O)n(CC)c2-c2c(F)cccc2F)c1 [Compound 103],Test D control value,[1]; Powdery mildew on barley,H (H shows more than 50% of control values)
same,Test C control value,Alternaia brassicicola,H (H shows more than 50% of control values)
same,Test E control value,Puccinia recondita; Brown rust on wheat,H (H shows more than 50% of control values)
same,Test G control value,Plasmopara viticola; [2],H (H shows more than 50% of control values)
same,Test B control value,Botrytis cinerea; Gray mold on tomato,H (H shows more than 50% of control values)
COc1cccc(-c2cc(C)c(=O)n(C)c2-c2c(F)cc(F)cc2F)c1Cl [Compound 671],"Test D (control value class, powdery mildew on barley)",[1],H (H shows more than 50% of control values)
same,"Test C (control value class, Alternaria sooty spot on cabbage)",Alternaia brassicicola,H (H shows more than 50% of control values)
same,"Test E (control value class, brown rust on wheat)",Puccinia recondita,H (H shows more than 50% of control values)
same,"Test G (control value class, downy mildew on vine)",Plasmopara viticola; [3],H (H shows more than 50% of control values)
same,"Test B (control value class, gray mold on tomato)",Botrytis cinerea,H (H shows more than 50% of control values)
CCOc1cc(F)c(-c2c(-c3cccc(F)c3Cl)cc(C)c(=O)n2CC)c(F)c1 [Compound 660],"Test D (control value class, powdery mildew on barley)",[1],H (H shows more than 50% of control values)
same,"Test C (control value class, Alternaria sooty spot on cabbage)",Alternaia brassicicola,H (H shows more than 50% of control values)
same,"Test E (control value class, brown rust on wheat)",Puccinia recondita,H (H shows more than 50% of control values)
same,"Test G (control value class, downy mildew on vine)",Plasmopara viticola; [3],H (H shows more than 50% of control values)
same,"Test B (control value class, gray mold on tomato)",Botrytis cinerea,H (H shows more than 50% of control values)
COc1cccc(-c2ccc(=O)n(C)c2-c2c(F)cc(F)cc2F)c1Cl [Compound 661],"Test D (control value class, powdery mildew on barley)",[1],H (H shows more than 50% of control values)
same,"Test C (control value class, Alternaria sooty spot on cabbage)",Alternaia brassicicola,H (H shows more than 50% of control values)
same,"Test E (control value class, brown rust on wheat)",Puccinia recondita,H (H shows more than 50% of control values)
same,"Test G (control value class, downy mildew on vine)",Plasmopara viticola; [3],H (H shows more than 50% of control values)
same,"Test B (control value class, gray mold on tomato)",Botrytis cinerea,H (H shows more than 50% of control values)
CCn1c(-c2c(F)cc(F)cc2F)c(-c2ccc(F)cc2Cl)cc(Cl)c1=O [Compound 577],"Test D (control value class, powdery mildew on barley)",[1],H (H shows more than 50% of control values)
same,"Test C (control value class, Alternaria sooty spot on cabbage)",Alternaia brassicicola,H (H shows more than 50% of control values)
same,"Test E (control value class, brown rust on wheat)",Puccinia recondita,H (H shows more than 50% of control values)
same,"Test G (control value class, downy mildew on vine)",Plasmopara viticola; [3],L (L shows 50% or less of control values)
same,"Test B (control value class, gray mold on tomato)",Botrytis cinerea,H (H shows more than 50% of control values)
Cn1c(-c2c(F)cc(F)cc2F)c(-c2ccccc2Cl)cc(Cl)c1=O [Compound 432],Test D (control value class),[1]; [4],H (H shows more than 50% of control values)
same,Test C (control value class),Alternaia brassicicola; 250 ppm spray,H (H shows more than 50% of control values)
same,Test E (control value class),Puccinia recondita; [5],H (H shows more than 50% of control values)
same,Test G (control value class),Plasmopara viticola; [6],H (H shows more than 50% of control values)
same,Test B (control value class),Botrytis cinerea; [7],H (H shows more than 50% of control values)
Cc1cc(-c2cc(F)cc(F)c2F)c(-c2c(F)cccc2F)n(C)c1=O [Compound 457],Test D (control value class),[1]; [4],H (H shows more than 50% of control values)
same,Test C (control value class),Alternaia brassicicola; 250 ppm spray,H (H shows more than 50% of control values)
same,Test E (control value class),Puccinia recondita; [5],H (H shows more than 50% of control values)
same,Test G (control value class),Plasmopara viticola; [6],H (H shows more than 50% of control values)
same,Test B (control value class),Botrytis cinerea; [7],H (H shows more than 50% of control values)
CCCCN1C(=O)CCC(c2cc(OC)ccc2Cl)=C1c1c(F)cccc1F [Compound 390],Test D (control value class),[1]; [4],H (H shows more than 50% of control values)
same,Test C (control value class),Alternaia brassicicola; 250 ppm spray,L (L shows 50% or less of control values)
same,Test E (control value class),Puccinia recondita; [5],L (L shows 50% or less of control values)
same,Test G (control value class),Plasmopara viticola; [6],L (L shows 50% or less of control values)
same,Test B (control value class),Botrytis cinerea; [7],L (L shows 50% or less of control values)
CN1C(=O)CCC(c2cc(F)ccc2Cl)=C1c1c(F)cccc1F [Compound 357],Test D control value (powdery mildew on barley),[1]; 250 ppm spray,H (H shows more than 50% of control values)
same,Test C control value (Alternaria sooty spot on cabbage),Alternaia brassicicola; 250 ppm spray,H (H shows more than 50% of control values)
same,Test E control value (brown rust on wheat),Puccinia recondita; 250 ppm spray,H (H shows more than 50% of control values)
same,Test G control value (downy mildew on vine),Plasmopara viticola; 7-10 days after inoculation,H (H shows more than 50% of control values)
same,Test B control value (gray mold on tomato),Botrytis cinerea; 250 ppm spray,H (H shows more than 50% of control values)
CN1C(=O)CCC(c2ccccc2F)=C1c1c(F)cc(F)cc1F [Compound 526],Test D (control value class),[1]; [4],H (H shows more than 50% of control values)
same,Test C (control value class),Alternaia brassicicola; 250 ppm spray,H (H shows more than 50% of control values)
same,Test E (control value class),Puccinia recondita; [5],L (L shows 50% or less of control values)
same,Test G (control value class),Plasmopara viticola; [6],H (H shows more than 50% of control values)
same,Test B (control value class),Botrytis cinerea; [7],H (H shows more than 50% of control values)
CCOc1cc(F)c(-c2c(-c3cccc(F)c3Cl)cc(Br)c(=O)n2CC)c(F)c1 [Compound 659],"Test D (control value class, powdery mildew on barley)",[1],H (H shows more than 50% of control values)
same,"Test C (control value class, Alternaria sooty spot on cabbage)",Alternaia brassicicola,H (H shows more than 50% of control values)
same,"Test E (control value class, brown rust on wheat)",Puccinia recondita,H (H shows more than 50% of control values)
same,"Test G (control value class, downy mildew on vine)",Plasmopara viticola; [3],L (L shows 50% or less of control values)
same,"Test B (control value class, gray mold on tomato)",Botrytis cinerea,H (H shows more than 50% of control values)
CCn1c(-c2c(F)cccc2F)c(-c2cc(OC)ccc2Cl)cc(S(C)(=O)=O)c1=O [Compound 387],Test D (control value class),[1]; [4],L (L shows 50% or less of control values)
same,Test C (control value class),Alternaia brassicicola; 250 ppm spray,L (L shows 50% or less of control values)
same,Test E (control value class),Puccinia recondita; [5],L (L shows 50% or less of control values)
same,Test G (control value class),Plasmopara viticola; [6],L (L shows 50% or less of control values)
same,Test B (control value class),Botrytis cinerea; [7],L (L shows 50% or less of control values)
Cn1c(-c2c(F)cccc2F)c(-c2cccc(Cl)c2)cc(Br)c1=O [Compound 190],Test D control value (powdery mildew on barley),[1]; 250 ppm spray,H (H shows more than 50% of control values)
same,Test C control value (Alternaria sooty spot on cabbage),Alternaia brassicicola; 250 ppm spray,H (H shows more than 50% of control values)
same,Test E control value (brown rust on wheat),Puccinia recondita; 250 ppm spray,H (H shows more than 50% of control values)
same,Test G control value (downy mildew on vine),Plasmopara viticola; 7-10 days after inoculation,H (H shows more than 50% of control values)
same,Test B control value (gray mold on tomato),Botrytis cinerea; 250 ppm spray,H (H shows more than 50% of control values)
Cn1c(-c2c(F)cccc2F)c(-c2cc(OCC(F)F)ccc2Cl)ccc1=O [Compound 278],Test D control value (powdery mildew on barley),[1]; 250 ppm spray,H (H shows more than 50% of control values)
same,Test C control value (Alternaria sooty spot on cabbage),Alternaia brassicicola; 250 ppm spray,H (H shows more than 50% of control values)
same,Test E control value (brown rust on wheat),Puccinia recondita; 250 ppm spray,H (H shows more than 50% of control values)
same,Test G control value (downy mildew on vine),Plasmopara viticola; 7-10 days after inoculation,H (H shows more than 50% of control values)
same,Test B control value (gray mold on tomato),Botrytis cinerea; 250 ppm spray,H (H shows more than 50% of control values)
CCn1c(-c2c(F)cccc2F)c(-c2cc(OCC#N)ccc2Cl)cc(Br)c1=O [Compound 128],Test D control value,[1]; Powdery mildew on barley,H (H shows more than 50% of control values)
same,Test C control value,Alternaia brassicicola,H (H shows more than 50% of control values)
same,Test E control value,Puccinia recondita; Brown rust on wheat,H (H shows more than 50% of control values)
same,Test G control value,Plasmopara viticola; [2],H (H shows more than 50% of control values)
same,Test B control value,Botrytis cinerea; Gray mold on tomato,H (H shows more than 50% of control values)
COc1cc(F)c(-c2c(-c3cc(F)cc(F)c3Br)cc(Cl)c(=O)n2C)c(F)c1 [Compound 824],Test D (control value class),"[1]; Powdery mildew on barley, control value=100{1-(n/3)}",H (H shows more than 50% of control values)
same,Test C (control value class),Alternaia brassicicola; control value=100{1-(n/3)},H (H shows more than 50% of control values)
same,Test E (control value class),"Puccinia recondita; Brown rust on wheat, control value=100{1-(n/3)}",H (H shows more than 50% of control values)
same,Test G (control value class),"Plasmopara viticola; Downy mildew on vine, 2.5 ml/pot, evaluated 7-10 days after inoculation",H (H shows more than 50% of control values)
same,Test B (control value class),"Botrytis cinerea; Gray mold on tomato, control value=100{1-(n/3)}",H (H shows more than 50% of control values)
COc1cc(F)c(-c2c(-c3cccc(F)c3F)cc(Cl)c(=O)n2C)c(F)c1 [Compound 562],"Test D (control value class, powdery mildew on barley)",[1],H (H shows more than 50% of control values)
same,"Test C (control value class, Alternaria sooty spot on cabbage)",Alternaia brassicicola,H (H shows more than 50% of control values)
same,"Test E (control value class, brown rust on wheat)",Puccinia recondita,H (H shows more than 50% of control values)
same,"Test G (control value class, downy mildew on vine)",Plasmopara viticola; [3],L (L shows 50% or less of control values)
same,"Test B (control value class, gray mold on tomato)",Botrytis cinerea,H (H shows more than 50% of control values)
